Here are results for 85 molecules from article PMC4336329 (PLoS ONE, 2015).

SMILES strings stand for the structures. About 14,000 (4.5%) of roughly 310,000 compounds showed an effect of 50% or more. Effects have a minus sign here. Some of the results follow.
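Also: peak tail current of the secondary pulse compared with the same well before compound.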

Chain of human ether-à-go-go-related gene (hERG) potassium channel (Q12809 whole entry, looked up): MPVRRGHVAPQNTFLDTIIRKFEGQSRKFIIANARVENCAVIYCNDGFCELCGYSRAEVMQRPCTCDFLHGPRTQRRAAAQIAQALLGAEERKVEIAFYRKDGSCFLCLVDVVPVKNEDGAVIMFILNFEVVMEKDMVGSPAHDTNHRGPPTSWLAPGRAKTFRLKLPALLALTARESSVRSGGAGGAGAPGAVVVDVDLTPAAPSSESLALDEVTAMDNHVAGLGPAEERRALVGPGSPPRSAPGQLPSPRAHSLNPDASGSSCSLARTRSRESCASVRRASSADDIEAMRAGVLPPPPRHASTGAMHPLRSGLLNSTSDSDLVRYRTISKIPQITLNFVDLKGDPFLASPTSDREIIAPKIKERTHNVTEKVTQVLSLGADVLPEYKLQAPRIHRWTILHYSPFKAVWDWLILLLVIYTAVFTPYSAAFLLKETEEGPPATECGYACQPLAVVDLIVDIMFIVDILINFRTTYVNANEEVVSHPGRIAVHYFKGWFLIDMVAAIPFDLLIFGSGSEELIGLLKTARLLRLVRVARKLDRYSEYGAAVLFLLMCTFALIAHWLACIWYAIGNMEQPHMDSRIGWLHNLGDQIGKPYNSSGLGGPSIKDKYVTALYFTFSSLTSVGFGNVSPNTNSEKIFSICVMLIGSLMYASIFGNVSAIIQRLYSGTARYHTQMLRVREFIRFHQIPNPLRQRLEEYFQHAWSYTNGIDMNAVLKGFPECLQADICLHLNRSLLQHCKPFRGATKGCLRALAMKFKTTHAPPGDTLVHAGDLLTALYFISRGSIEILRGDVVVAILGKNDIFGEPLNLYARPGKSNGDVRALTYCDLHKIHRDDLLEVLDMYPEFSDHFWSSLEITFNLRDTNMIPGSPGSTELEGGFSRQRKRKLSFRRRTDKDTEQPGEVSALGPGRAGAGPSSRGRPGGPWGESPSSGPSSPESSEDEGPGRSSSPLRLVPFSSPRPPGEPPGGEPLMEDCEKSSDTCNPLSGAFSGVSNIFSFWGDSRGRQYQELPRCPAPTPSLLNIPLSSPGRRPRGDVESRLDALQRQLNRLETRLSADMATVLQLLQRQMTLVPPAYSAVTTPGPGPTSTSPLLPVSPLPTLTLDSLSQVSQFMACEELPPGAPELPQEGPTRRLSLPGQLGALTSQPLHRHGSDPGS

The test concerns the target human ether-à-go-go-related gene (hERG) potassium channel (human, UniProt Q12809). In words: primary screen, population patch clamp on CHO cells stably expressing hERG.
For `O=C1CC(N(Cc2cccs2)C(=O)Nc2ccccc2)C(=O)N1c1ccc(Cl)cc1` (stereo not shown), the “hERG current change (%, negative = inhibition) at 10uM” value is -22.6%.
For the molecule `O=C(/C=C/c1ccc(Br)cc1)NC(=S)Nc1ccc(S(=O)(=O)Nc2nccs2)cc1`, the “hERG current change (%, negative = inhibition) at 10uM” value is 12.1%.
The same measure for `CN(C)S(=O)(=O)N1CCC(Oc2ccc(C(=O)N3C[C@H]4CC[C@H]3C4)cc2)CC1`: -3.95%; for `Cl.O=C(CN1CCN(CCO)CC1)Nc1ccccc1`: -4.94%; for `COc1ccc(C(C[N+](=O)[O-])c2c(C)cc3ccccn23)cc1` (stereo not shown): 16.8%.
The same measure for `C=C1CCN([C@H](C(=O)OCc2cccc(C)c2)C(C)C)S(=O)(=O)c2ccccc21`: 1.84%.
In the case of `CCc1ccc(Nc2nc3ccccc3c(=O)s2)cc1` it was 20.9%.
In the case of `CC(C)(C)OC(=O)CNC(=O)c1nc[nH]c1C(=O)N1CC[NH2+]CC1.[Cl-]`, the “hERG current change (%, negative = inhibition) at 10uM” value is given as 4.07%.
In the case of `COc1ccc(-c2cnc3n2CCCCC3)cc1` it was -33.1%.
In the case of `CCn1cc(C(=O)N2CC(C)CC(C)C2)c(=O)c2cc(S(=O)(=O)N3CCOCC3)ccc21` (stereo not shown) it was -18.3%; in that of `COc1ccc2c(c1)OC(c1ccccc1)(C(F)(F)F)NC2=O` (stereo not shown), -1.12%; in that of `COc1ccc(C(=O)OCC(=O)NCC2CCCO2)cc1S(=O)(=O)N1CCCc2ccccc21` (stereo not shown), -16.6%.
In the case of `CC1(C)Cc2c(sc(NC(=O)C(=O)NCC3CCCO3)c2C(=O)O)CO1` (stereo not shown) it was -26.7%; in that of `COc1ccc(/C(C)=N/Nc2nncc3ccccc23)cc1`, 15.6%; in that of `CCOc1ccc2oc(C(=O)N3CCN(c4ccccc4OCC)CC3)c(C)c2c1`, -52.6%.
Turning to `O=C1C2C3C=CC(C3=C3CCCCC3)C2C(=O)N1c1ccccc1` (stereo not shown), the “hERG current change (%, negative = inhibition) at 10uM” value was 15.3%.
The same measure for `COc1cc(C(c2sc3nc(C)nn3c2O)N2CCC3(CC2)OCCO3)cc(OC)c1OC` (stereo not shown): 45.6%; for `CCNc1nc(C23CC4CC(CC(C4)C2)C3)cs1.Cl`: 17.3%; for `Cc1nc2ccccc2nc1N1CCOCC1`: 5.42%.
The same measure for `COc1cccc2c1C(=O)CC2NC(=O)C(F)(F)F` (stereo not shown): 5.18%.
The same measure for `O=C(C1CCCO1)N1CCN(C(=S)Nc2cccc(F)c2)CC1` (stereo not shown): 13.8%; for `O=C(CN(Cc1ccccc1)C(=O)CNS(=O)(=O)c1ccc(Cl)cc1)NCC1CCCO1` (stereo not shown): 11.2%.
In the case of `COCCNC(=O)CN1C(=O)NC2(CCCc3ccccc32)C1=O` (stereo not shown), the “hERG current change (%, negative = inhibition) at 10uM” value amounted to 13.5%.
In the case of `COc1cc2c(cc1OC)C(=O)N1[C@H]3c4ccccc4OC[C@@H]3[C@H](c3ccccc3)[C@]1(C)C(=O)N2`, the “hERG current change (%, negative = inhibition) at 10uM” value stood at 1.73%.
Turning to `CCc1cccc(C)c1NC(=O)CSc1nc2ccncc2[nH]1`, the “hERG current change (%, negative = inhibition) at 10uM” value stood at 8.28%.
In the case of `Cc1ccc(NC(=O)C2C3C=CC4(O3)C2C(=O)N(CCCN2CCCCC2)C4C(=O)NC2CCCCC2)cc1C` (stereo not shown) it was 28.8%; in that of `CCN(CC)c1ccc2cc(C=O)c(=O)oc2c1`, -1.74%.
The same measure for `CCCCc1cc(=O)oc2c(C)c(OCC(=O)N3CCC(C(=O)O)(c4ccccc4)CC3)ccc12`: 6.82%; for `Cc1cccc(N2CCN(C(=O)c3ccc4c(c3)NC(=O)C(CSCc3cccc(F)c3)N4)CC2C)c1` (stereo not shown): 17%; for `CC(C(=O)Nc1ccc(Cl)cc1Cl)N1C(=O)NC2(CCCCCCC2)C1=O` (stereo not shown): -2.76%.
The same measure for `CCC(=O)Nc1cccc(Oc2nc(C)cc(C)c2C#N)c1`: -2.5%; for `O=C(Cc1cccs1)N(Cc1cccs1)C1(C(=O)NC2CCCCC2)CCCCC1`: -1.65%.
As for `CN(C)CCNC(=O)c1onc(CSc2ccc(F)c(F)c2)c1C(=O)NCCN(C)C`, the “hERG current change (%, negative = inhibition) at 10uM” value is listed as 11.3%.
The same measure for `COc1ccc2[nH]c(CN3CCC(CO)(CCOc4ccccc4)CC3)c(C)c2c1`: -45.3%; for `CN(CC(=O)Nc1ccc(N2CCOCC2)cc1)C(=O)CC(c1ccccc1)c1ccccc1`: -22%.
Consider `Clc1ccc(-c2nnc(-c3cccnc3)o2)cc1`, for which the “hERG current change (%, negative = inhibition) at 10uM” value is on record as -11.8%.
In the case of `COc1ccc(-c2cn3ccsc3n2)cc1` it was -2.94%.
In the case of `O=C(CCC1CCCC1)NCCS(=O)(=O)N1CCN(c2ccccc2F)CC1` it was -21.6%; in that of `c1ccc(CNCCC(Cc2ccccc2)c2ccco2)cc1` (stereo not shown), -54.8%; in that of `Cc1c(NC(=O)COC(=O)C2(c3ccccc3F)CCCC2)c(=O)n(-c2ccccc2)n1C`, -1.01%.
With `CCOc1ccc(S(=O)(=O)NCCC(=O)NCC(c2ccccc2OC)N2CCCC2)cc1` (stereo not shown), the “hERG current change (%, negative = inhibition) at 10uM” value turned out to be 0.832%.
In the case of `CCc1ccc([C@@H]2CC=C(C(=O)O)[C@H](c3ccc(F)cc3)N2S(=O)(=O)c2ccc(C)cc2)cc1` it was 21.7%; in that of `Cc1ccc(CNC(=O)[C@@H](NC(=O)C2CCN(C(=O)[C@@H](N)CC(C)C)CC2)C(C)C)cc1`, 21.2%; in that of `O=C(NC1CCCN(Cc2ccc(Cl)cc2)C1)C1CCC1` (stereo not shown), -13.6%.
The same measure for `CC(C)N1CCN(Cc2ccncc2)CC1CCO` (stereo not shown): 4.5%.
Take `COC(=O)CSc1nnc(C2COc3ccccc3O2)n1-c1ccccc1` (stereo not shown): the “hERG current change (%, negative = inhibition) at 10uM” value is on record as -8.8%.
The same measure for `COc1cc(CC(=O)OCC(=O)Nc2ccc(S(=O)(=O)N3CCCC3)cc2)cc(OC)c1OC`: 1.62%; for `O=[N+]([O-])c1cccc2c(S(=O)(=O)N3CCCCC3)cccc12`: 3.11%; for `O=C(CC1C(=O)NCCN1CCCc1ccccc1)NCCc1ccccc1Cl` (stereo not shown): -15%.
The same measure for `Cl.OCCNCc1cccc(OCc2ccccc2Cl)c1`: -17.6%; for `CCCCN(C)C(=O)c1sc2ncn(CC)c(=O)c2c1C`: -4.5%; for `Cn1nc(C(F)(F)F)c(C(=O)Nc2ccc(F)cc2F)c1Sc1cccc(C(F)(F)F)c1`: 12.1%.
In the case of `Cc1cc(C(=O)CSc2ccccc2)cc(C)c1O` it was 3.81%; in that of `CC1c2[nH]c3ccccc3c2C[C@H]2C(=O)N(CCO)CC(=O)N12` (stereo partly shown), 10.2%; in that of `O=c1cc(CO)oc(C(Nc2ccccn2)c2ccccc2F)c1O` (stereo not shown), 17.5%.
Consider `Cc1ccc(Cl)cc1N1CCN(CC(=O)Nc2ccc3[nH]c(=O)[nH]c3c2)CC1`, for which the “hERG current change (%, negative = inhibition) at 10uM” value is listed as 11.1%.
With `Cn1cc(C(=O)c2ccc(Cl)cc2Cl)cc1C(=O)N/N=C(\N)COc1ccc(Cl)cc1`, the “hERG current change (%, negative = inhibition) at 10uM” value is -9.64%.
The same measure for `COC(=O)c1ccc(NC(=O)C2CCCN(S(=O)(=O)c3cnc[nH]3)C2)cc1` (stereo not shown): 3.35%.
Regarding `CCC(C)(O)c1[nH]c2ccc(C(=O)OC)cc2c1C` (stereo not shown), the “hERG current change (%, negative = inhibition) at 10uM” value amounted to 4.57%.
The same measure for `CC1CCCN(C(=O)C2CCCN(S(=O)(=O)c3cccc4nsnc34)C2)C1` (stereo not shown): 2.02%; for `CN1CCN(C(=O)/C(=C/c2ccc(F)cc2)NC(=O)c2ccccc2)CC1`: -77.8%.
The same measure for `CCOC(=O)N1CCC(c2nc3ccccc3[nH]2)CC1`: 9.64%; for `OCCCNC(=S)Nc1ccc2nc(-c3ccccn3)c(-c3ccccn3)nc2c1`: 3.83%.
In the case of `O=C(Nc1ccc(Cl)cc1)Nc1nnc(CSCc2ccccc2)s1` it was 19.6%; in that of `C=CCNC(=O)c1c(N)n(-c2cccc(S(N)(=O)=O)c2)c2nc3ccccc3nc12`, -4.04%.
For `Cc1c(C(=O)N/N=C/c2ccncc2)no[n+]1[O-]`, the “hERG current change (%, negative = inhibition) at 10uM” value was 20.1%.
In the case of `CN1C(=O)c2ccc(N(C)C)cc2C1=O` it was 18.9%.
In the case of `Cc1ccc(C)c(Oc2ncnc(N)c2[N+](=O)[O-])c1` it was 0.818%; in that of `COc1ccc(/C=C/C(=O)Nc2cccc(S(=O)(=O)NC3=NCCCCC3)c2)cc1OC`, 5.13%.
The same measure for `C[C@H](NC(=O)[C@H]1N2C(=O)c3ccccc3C2SC1(C)C)C(=O)N1CCN(C)CC1` (stereo partly shown): 9.24%; for `NC(=O)C1CCCN(CC(=O)Nc2ccccc2C(=O)NC2CC2)C1` (stereo not shown): -10.7%.
For `CC(=O)Nc1cc2ccccc2oc1=O`, the “hERG current change (%, negative = inhibition) at 10uM” value was found to be 22.5%.
`O=C(Cn1c(COc2ccccc2)nc2ccccc21)Nc1cc(Cl)ccc1Cl`: the “hERG current change (%, negative = inhibition) at 10uM” value was 9.36%.
The same measure for `COc1ccccc1CNC(=O)C1CCN(C(=O)c2sccc2-n2cccc2)CC1`: 17.5%; for `O=[N+]([O-])c1ccc(OCCO)c(P(=O)(c2ccccc2)c2ccccc2)c1`: -2.8%; for `COc1cc2sc3ccc(C#Cc4ccc(N)cc4)cc3c(=O)c2cc1OC`: 20.4%.
The same measure for `C#CC(=O)N(c1cc(OC)ccc1OC)C(C(=O)NC1CCCC1)c1cccs1` (stereo not shown): -12.6%.
In the case of `COc1ccccc1C(=O)C1CCCN(C(=O)c2snnc2C)C1` (stereo not shown) it was 11.8%; in that of `CN(C)CC/C=C1\c2cc(F)ccc2CSc2ccccc21.O=C(O)/C=C\C(=O)O`, -35.4%; in that of `CSCCC(NS(=O)(=O)c1ccc2c(c1)OCCO2)C(=O)N(C)Cc1ccc(F)cc1` (stereo not shown), -35.2%.
With `CC1CN(C(=O)Nc2ccc(F)cc2F)CC(C)O1` (stereo not shown), the “hERG current change (%, negative = inhibition) at 10uM” value is given as -29.5%.
The same measure for `Cc1nnsc1-c1c(C(=O)N2CCOCC2)c(C)nn1-c1ccccc1`: 0.762%; for `O=c1[nH]cc(NCCc2ccccc2)c(=O)[nH]1`: 8.76%; for `COc1ccccc1/C=C/C=N/NC(=O)CCn1cnc2ccccc21`: -25%.
The same measure for `Cc1ccc(-c2nn(-c3ccccc3)cc2/C=C2\SC(=S)N(CCCCCC(=O)O)C2=O)o1`: 15.1%.
